Target: T1, sYeGT (Yersinia enterocolitica, UniProt A0AAT8XUD0)
T1 construct: YeGT shortened by 16 N-terminal residues (printed as 279 residues, but 313-16 = 297); E. coli expression, His tag removed by TEV leaving Gly-Ser-Met (crystals)
Assay: X-ray crystal structure, […] A
Type: binding
Details: Mn2+; pH 7.5; crystallised with UDP-GlcNAc, which was hydrolysed; partial Cd2+ on the diphosphate

## O=c1ccn([C@@H]2O[C@H](COP(=O)(O)OP(=O)(O)O)[C@@H](O)[C@H]2O)c(=O)[nH]1 [UDP]
  X-ray crystal structure, 1.12 A: only the UDP moiety was visible in the electron density map

— publication PMC11152714 (The Journal of Biological Chemistry, 2024)
